Reference: PubChem BioAssay AID651820 (National Center for Advancing Translational Sciences (NCATS), 2012)
About 12,000 (3.5%) of roughly 340,000 compounds were called active. Inconclusive results, whose numbers are uncertain, are shown with a selection of clear calls. The call rests on the fitted dose curve; in most records, active means well fitted inhibition curve with a large enough effect; inconclusive means small, poorly fitted or top-dose-only effect, or another doubt; inactive means no such curve, though single readings can be large or run the other way. Potencies of inconclusive entries are left out as doubtful fits.

Test: qHTS Assay for Inhibitors of Hepatitis C Virus (HCV)
Details: Huh7.5.1 HCVcc-Cre (HCVcc is cell-culture hepatitis C virus) infection, luciferase reporter, 44 h; activity change, negative = inhibition: at 41.8 µM (top of the series) unless noted
Summary of the method: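 HCVcc-Cre virus at an moi near 0.5 was added right after compound to cells cultured 4 h from seeding (1,000 cells/well). Luciferase activity was determined 44 h later, 15 min after substrate addition at RT.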
On the % scale 0 is the no-effect control and ±100 the full control effect; potency means the concentration at half of the fitted maximal effect; tags describe the fitted curve by direction and shape.

SMILES	Potency	activity change, negative = inhibition
COC(=O)c1ccc(Oc2ccc(S(=O)(=O)N3CCCCC3)cc2N)cc1	inconclusive [inhibitor, single point]	
COc1ccc(CCC(C)NC(=O)CCc2ccccc2)c(OC)c1 (stereo not given)	inconclusive [inhibitor, partial curve]	
COc1ccc(NS(=O)(=O)c2ccc(C)c(C(=O)N3CCN(Cc4cc(OC)ccc4OC)CC3)c2)cc1	inconclusive [inhibitor, partial curve, poor fit]	
C=CCn1c(SCC(=O)NCc2ccc3c(c2)OCO3)nnc1C1CCCCC1		inactive: -5.67%
Cc1ccc(NC(=O)NC2CC(=O)N(c3ccc4c(c3)OCCO4)C2)c(C)c1 (stereo not given)		inactive: 10.1%
CCn1cc([N+](=O)[O-])c(C(=O)N2N=C(c3ccc(O)c(OC)c3)CC2c2ccccc2O)n1 (stereo not given)	inconclusive [inhibitor, partial curve]	
CCCN(CC(=O)Nc1ccccc1C)C(=O)c1ccc(OCc2c(C)noc2C)cc1	inconclusive [inhibitor, single point]	
CCn1c(C)cc(/C=C2\NC(=O)N(CC(=O)Nc3cccc(C)c3)C2=O)c1C		inactive: 9.47%
CCn1c(CSCc2ccc(C)cc2)nnc1SCC(=O)N1CCN(c2ccccc2)CC1	inconclusive [inhibitor, single point]	
COc1ccc(CN(CC(=O)NCCc2ccccc2)C(=O)CCC(=O)Nc2ccccn2)cc1	inconclusive [inhibitor, partial curve]	
CCOC(=O)C1=C(CC)Nc2ccccc2N=C1NC(=O)c1oc2ccccc2c1C	inconclusive [inhibitor, partial curve]	
COc1ccc(C(CNC(=O)COc2ccccc2-c2ccccc2)N2CCOCC2)cc1 (stereo not given)	inconclusive [inhibitor, single point]	
O=C(COC(=O)c1c2c(nc3ccccc13)CCCC2)c1ccc(Br)s1	inconclusive [inhibitor, partial curve, poor fit]	
CC(C)C(=O)NC(C)C(c1cccs1)N1CCOCC1 (stereo not given)	inconclusive [inhibitor, single point]	
CCN1CCCC1CNC(=O)Cn1cnc2sc(C)c(S(=O)(=O)N3CCC(C)CC3)c2c1=O (stereo not given)	inconclusive [inhibitor, single point]	
CN(C)/C=N/c1ncc(C(=O)c2ccc3ccccc3c2)s1	inconclusive [inhibitor, partial curve, poor fit]	
Cc1ccc(-c2noc(CCC(=O)NCC3CCN(Cc4cccc(C)c4)CC3)n2)cc1	active: 1.12 µM	
COc1ccc(Cl)cc1NC(=O)CN(C)CC(=O)Nc1ccc2c(c1)OCO2	inconclusive [inhibitor, partial curve]	
CCOc1cc(CNc2ccc3c(c2)OCCO3)cc(Br)c1OC	active: 0.794 µM	
Cc1ccc(S(=O)(=O)Nc2ccc3c(c2)CC(=O)N([C@H](C)CO)C[C@@H](C)[C@H](CN(C)S(=O)(=O)c2ccccc2)O3)cc1		inactive: 7.86%
COc1cc(/C=C2\SC(=S)N(CC(=O)Nc3ccc(O)cc3)C2=O)cc(OC)c1OC		inactive: -1.9%
O=C(c1cc2nc(-c3ccc(F)cc3)cc(C(F)(F)F)n2n1)N1CCCCC1c1cccnc1 (stereo not given)	active: 7.94 µM	
CCC(C)n1c(SCC(=O)NC(=O)c2cccn2C)nc2ccccc2c1=O (stereo not given)	inconclusive [inhibitor, full curve]	
CCc1nc(SCC(=O)NCc2ccco2)c2c(=O)n(C)c(=O)n(C)c2n1	inconclusive [inhibitor, partial curve]	

SMILES	Potency	activity change, negative = inhibition
Cc1ccc(C(C)C)cc1NC(=O)Nc1ccc([N+](=O)[O-])cc1	active: 12.6 µM	
C=CCn1c(SCC(=O)NC2CCCC2)nc2sc(C)cc2c1=O	inconclusive [inhibitor, single point]	
CCOC(=O)Cn1nc(-c2ccccc2)c2cnc3ccc(CC)cc3c21	inconclusive [inhibitor, partial curve]	
COC(=O)c1c(NC(=O)c2ccco2)sc2c1CCN(C(C)C)C2		inactive: -23%
COc1cccc(NC(=O)CC2C(=O)NCCN2C(=S)Nc2ccc(F)cc2)c1 (stereo not given)	inconclusive [inhibitor, single point]	
COc1ccc(N2CCN(S(=O)(=O)c3ccc(OC)c(C(=O)N4CCCCC4)c3)CC2)cc1	active: 12.6 µM	
CCCOc1ccc(-c2cnc(N)s2)cc1	inconclusive [inhibitor, single point]	
CSc1ccc(C(=O)C2CCCN(Cc3cnc(SC)nc3)C2)cc1 (stereo not given)	inconclusive [inhibitor, single point]	
CC(C)(C)C(=O)O[C@H]1CC[C@@]2(C)C(=CC(=O)C3C2CC[C@]2(C)C(=O)[C@@H](F)CC32)C1 (stereo not given in full)	inconclusive [inhibitor, single point]	
Cc1cccc(-c2cc3nc4c(c(N5CCOCC5)n3n2)CCCC4)c1	inconclusive [inhibitor, full curve]	
C/C(N)=C(/C#N)C(=O)CSc1nc2ccccc2c(=O)n1CCCOC(C)C		inactive: 10.7%
Cc1c(NC(=O)CN2CCN(C(c3ccccc3)c3ccccc3)CC2)c(=O)n(-c2ccccc2)n1C	inconclusive [inhibitor, partial curve, poor fit]	
CCOc1ccc(C(=O)OCC(=O)Nc2cc(C)on2)cc1OCC	inconclusive [inhibitor, single point]	
Nc1nc2ccc(Cc3ccncc3)cc2s1		inactive: 2.07%
O=C(COC(=O)c1ccc2c(c1)OCO2)Nc1ccccc1OC(F)F	inconclusive [inhibitor, single point]	
Cc1noc(/C=C/c2ccccc2F)c1S(=O)(=O)N1CCC(C(=O)N2CCN(C)CC2)CC1	active: 3.98 µM	
COC(=O)c1ccc(C(=O)OC)c(NC(=O)C(C)(C)C)c1		inactive: -23%
COc1ccc(-c2oc3ccc(-c4ccc5c(c4)OCO5)cc3c2C#CC2(O)CCCCC2)cc1	inconclusive [inhibitor, full curve]	
CCOC(=O)C1=C(N)n2c(s/c(=C\c3ccco3)c2=O)=C(C(=O)OC(C)C)C1c1ccco1 (stereo not given)	inconclusive [inhibitor, single point]	
CC(C)(C)c1ccc(C(=O)CC(=O)c2cc(Cl)ccc2O)cc1	active: 11.2 µM	
COc1ccc2nc(-c3ccccc3)cc(C(=O)OCC(=O)N3CCCCC3)c2c1	inconclusive [inhibitor, partial curve]	
COc1ccc(NC(=O)c2cccc(S(=O)(=O)N3CCCC3)c2)cc1OC	inconclusive [inhibitor, partial curve]	
Cc1cccc(NC(=O)CN2CCN(C(=O)c3oc4c(Cl)cccc4c3C)CC2)c1C	inconclusive [inhibitor, single point]	
CC1(C)C(/C=C/C=C/C=C/C=C2\N(CCCCS(=O)(=O)O)c3ccc4ccccc4c3C2(C)C)=[N+](CCCCS(=O)(=O)[O-])c2ccc3ccccc3c21		inactive: -95.3%

SMILES	Potency	activity change, negative = inhibition
COc1cccc(NC(=O)COC(=O)CCC2CCCC2)c1		inactive: -7.25%
O=C(c1ccc(Br)s1)N1CCN(c2ccccn2)CC1		inactive: 6.47%
COc1cccc(NCc2cc(=O)oc3cc(-c4ccccc4)c(O)cc23)c1	inconclusive [inhibitor, full curve]	
O=C(/C=C/c1ccco1)Oc1cc(Br)cc(/C=N/NC(=O)c2ccccc2O)c1	inconclusive [inhibitor, full curve]	
COC(=O)c1ccc(NC(=O)CSc2nc(=O)n3cccc(C)c3n2)cc1		inactive: 10.6%
O=[N+]([O-])c1ccc(-c2cnc(NO)nc2)cc1		inactive: -1.37%
OCC1(CCOc2ccccc2)CCN(Cc2ccc(OC(F)F)cc2)CC1	active: 12.6 µM	
CCOc1ccccc1/C=C/C(=O)c1ccc(Cl)cc1		inactive: -14.6%
O=C(CCc1ccccc1)Nc1nnc(-c2ccccn2)o1		inactive: -9.15%
O=C(O)Cc1ccc(NC(=O)c2ccc(NC(=O)c3ccco3)cc2)cc1		inactive: -5.07%
COc1ccccc1NC(=O)COC(=O)c1cn(C)c2ccccc12	inconclusive [inhibitor, partial curve]	
CSc1nc2ccc(NC(=O)C3=NNC(=O)CC3)cc2s1		inactive: -20.3%
Cc1cccnc1Nc1nc(-c2ccc(F)cc2)cs1	inconclusive [inhibitor, single point]	
O=C(NNC(=O)c1ccc2ccccc2c1)c1ccc(Cl)c(Cl)c1		inactive: -11.1%
CCc1ccc(NC(=O)CCC(=O)N2CCSc3ccccc32)cc1		inactive: -22.9%
CC1(C2CC2)NC(=O)N(CC(=O)N2CCN(c3ccccc3)CC2)C1=O (stereo not given)		inactive: 15.1%
O=C(CSc1n[nH]c(-c2cccs2)n1)N1CCOCC1		inactive: 0.426%
CCOC(=O)C1=C(COC(=O)CNC(=O)c2ccc(Cl)cc2Cl)NC(=O)NC1C (stereo not given)	inconclusive [inhibitor, full curve]	
O=C(COC(=O)/C=C/c1ccc(F)cc1)Nc1ccccc1-c1ccccc1		inactive: 10.5%
CC(=O)N1C=CN(C(C)=O)C(c2cn(C)c3ccccc23)C1c1cn(C)c2ccccc12 (stereo not given)	inconclusive [inhibitor, partial curve]	
O=C(Nc1ccccc1)c1cccnc1NCCc1ccccc1	inconclusive [inhibitor, partial curve]	
Cc1cccc(OCCSc2ncnc3nc[nH]c23)c1	inconclusive [inhibitor, single point]	
